The results in this text go back to paper PMC9911399, “Two distinct binding modes provide the RNA-binding protein RbFox with extraordinary sequence specificity”.

First the molecules themselves.
B1: UGUGAGC (DNA:RNA)
RNA: GGGAGACCGGAAUUCAGAUUGUCCUGUGAGCUUAAAUCCCGUCGUAGCCACCA
DNA 1: CAATCTGAATTCCGGTCTCCC
DNA 2: TGGTGGCTACGACGGGATT
B2: UUACUUC (DNA:RNA)
RNA: B1 RNA with G26U, U27A, G28C, A29U, G30U
DNA 1: CAATCTGAATTCCGGTCTCCC
DNA 2: TGGTGGCTACGACGGGATT
B3: CGUUACC (DNA:RNA)
RNA: B1 RNA with U25C, G28U, G30C
DNA 1: CAATCTGAATTCCGGTCTCCC
DNA 2: TGGTGGCTACGACGGGATT
B4: GGCCGCA (DNA:RNA)
RNA: B1 RNA with U25G, U27C, G28C, A29G, G30C, C31A
DNA 1: CAATCTGAATTCCGGTCTCCC
DNA 2: TGGTGGCTACGACGGGATT
B5: AGGUAUC (DNA:RNA)
RNA: B1 RNA with U25A, U27G, G28U, G30U
DNA 1: CAATCTGAATTCCGGTCTCCC
DNA 2: TGGTGGCTACGACGGGATT
B6: ACUCUCG (DNA:RNA)
RNA: B1 RNA with U25A, G26C, G28C, A29U, G30C, C31G
DNA 1: CAATCTGAATTCCGGTCTCCC
DNA 2: TGGTGGCTACGACGGGATT
B7: AAGCGAU (DNA:RNA)
RNA: GGGAGACCGGAAUUCAGAUUGUCCAAGCGAUUUAAAUCCCGUCGUAGCCACCA
DNA 1: CAATCTGAATTCCGGTCTCCC
DNA 2: TGGTGGCTACGACGGGATT
B8: UGAAGCA (DNA:RNA)
RNA: B1 RNA with U27A, G28A, A29G, G30C, C31A
DNA 1: CAATCTGAATTCCGGTCTCCC
DNA 2: TGGTGGCTACGACGGGATT
B9: GGAGUGG (DNA:RNA)
RNA: B1 RNA with U25G, U27A, A29U, C31G
DNA 1: CAATCTGAATTCCGGTCTCCC
DNA 2: TGGTGGCTACGACGGGATT

Substitutions are numbered along the chain they refer to; changes in the protein carry UniProt numbers. This is one part of the list.

For the experiment, the target named is T1, RBFOX1 RRM (Homo sapiens, UniProt Q9NWB1 109-208).
T1 sequence: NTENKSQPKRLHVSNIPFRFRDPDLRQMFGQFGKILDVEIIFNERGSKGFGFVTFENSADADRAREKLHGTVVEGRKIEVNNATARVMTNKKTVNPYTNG
Briefly: EMSA; HiTS-Eq, 1 nM pool, 10 min; buffer printed only for the single-RNA assays: 10 mM Tris pH 7.5, 150 mM NaCl, 3.4 mM EDTA, 0.001% NP-40, 30 C. To be noted: tags: His6 N-terminal (pET28a); label: 5' 32P. The method in brief:
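Relative association constants, normalised to the cognate motif, were derived by comparing read counts of each RNA species with those of the control reaction. The RNA sequenced was the free fraction, separated by 8% native PAGE after a 10 min equilibration in 50 µL of 1 nM 5′-radiolabelled RNA (7 randomized nucleotides) with increasing concentrations of purified wild-type or mutant RbFox RRM.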
In general terms: A gel shift assay detects complexes by their altered migration in electrophoresis.
With B1, the binding signal is 0.0247 KA relative to UGCAUGU. In the case of B2 it was 0.0109 KA relative to UGCAUGU. To B3 belongs 0.00632 KA relative to UGCAUGU; to B4, 0.0132 KA relative to UGCAUGU.

With B5, the binding signal was 0.0104 KA relative to UGCAUGU. Take B6: the binding signal is 0.00571 KA relative to UGCAUGU. To B7 belongs 0.00378 KA relative to UGCAUGU. To B8 belongs 0.0172 KA relative to UGCAUGU; to B9, 0.0151 KA relative to UGCAUGU.
